Data from the supplement of paper PMC8728848.
The list shows a part of the results.

Columns and labels:
Test in all cases: glycan array binding signal (z-score within array); higher = stronger binding
Details in all cases: glycan notation: IUPAC condensed, linker removed
[1] = molecular target: Fuc(a1-2)Gal(b1-4)GlcNAc(b1-2)[Fuc(a1-2)Gal(b1-4)GlcNAc(b1-4)]Man(a1-3)[Fuc(a1-2)Gal(b1-4)GlcNAc(b1-2)Man(a1-6)]Man(b1-4)GlcNAc(b1-4)GlcNAc
Summary of the method: (§1)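 The binding signal is a Z-score computed within each array and averaged over linkers. Arrays of the same protein sequence at different concentrations or buffers were also averaged together. Data originate from 3228 arrays in the Consortium for Functional Glycomics database, kept only where the protein sequence was available.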

[2] = molecular target: Fuc(a1-2)Gal(b1-4)GlcNAc(b1-3)Gal(b1-4)GlcNAc
Summary of the method: as §1

[3] = molecular target: Fuc(a1-2)Gal(b1-4)GlcNAc(b1-3)Gal(b1-4)GlcNAc(b1-2)Man(a1-3)[Fuc(a1-2)Gal(b1-4)GlcNAc(b1-3)Gal(b1-4)GlcNAc(b1-2)Man(a1-6)]Man(b1-4)GlcNAc(b1-4)GlcNAc
Summary of the method: as §1

[4] = molecular target: Fuc(a1-2)Gal(b1-4)GlcNAc(b1-3)Gal(b1-4)GlcNAc(b1-3)Gal(b1-4)GlcNAc
Summary of the method: as §1

[5] = molecular target: Fuc(a1-2)Gal(b1-4)GlcNAc(b1-3)GalNAc
Summary of the method: as §1

[6] = molecular target: Fuc(a1-2)Gal(b1-4)GlcNAc(b1-3)[Fuc(a1-2)Gal(b1-4)GlcNAc(b1-6)]GalNAc
Summary of the method: as §1

[7] = molecular target: Fuc(a1-2)Gal(b1-4)GlcNAc(b1-3)[Fuc(a1-3)[Gal(b1-4)]GlcNAc(b1-6)]Gal(b1-4)Glc
Summary of the method: as §1

[8] = molecular target: Fuc(a1-2)Gal(b1-4)GlcNAc(b1-6)GalNAc
Summary of the method: as §1

[9] = molecular target: Fuc(a1-2)Gal(b1-4)GlcNAc6S
Summary of the method: as §1

[10] = molecular target: Fuc(a1-2)Gal(b1-4)[Fuc(a1-3)]GlcNAc
Summary of the method: as §1

[11] = molecular target: Fuc(a1-2)Gal(b1-4)[Fuc(a1-3)]GlcNAc(b1-2)Man(a1-3)[Fuc(a1-2)Gal(b1-4)[Fuc(a1-3)]GlcNAc(b1-2)Man(a1-6)]Man(b1-4)GlcNAc(b1-4)GlcNAc
Summary of the method: as §1

[12] = molecular target: Fuc(a1-2)Gal(b1-4)[Fuc(a1-3)]GlcNAc(b1-2)Man(a1-3)[Fuc(a1-2)Gal(b1-4)[Fuc(a1-3)]GlcNAc(b1-2)Man(a1-6)]Man(b1-4)GlcNAc(b1-4)[Fuc(a1-6)]GlcNAc
Summary of the method: as §1

[13] = molecular target: Fuc(a1-2)Gal(b1-4)[Fuc(a1-3)]GlcNAc(b1-2)[Fuc(a1-2)Gal(b1-4)[Fuc(a1-3)]GlcNAc(b1-4)]Man(a1-3)[Fuc(a1-2)Gal(b1-4)[Fuc(a1-3)]GlcNAc(b1-2)Man(a1-6)]Man(b1-4)GlcNAc(b1-4)GlcNAc
Summary of the method: as §1

[14] = molecular target: Fuc(a1-2)Gal(b1-4)[Fuc(a1-3)]GlcNAc(b1-3)Gal(b1-4)[Fuc(a1-3)]GlcNAc
Summary of the method: as §1

[15] = molecular target: Fuc(a1-2)Gal(b1-4)[Fuc(a1-3)]GlcNAc(b1-3)Gal(b1-4)[Fuc(a1-3)]GlcNAc(b1-3)Gal(b1-4)[Fuc(a1-3)]GlcNAc
Summary of the method: as §1

[16] = molecular target: Fuc(a1-2)Gal(b1-4)[Fuc(a1-3)]GlcNAc(b1-3)GalNAc
Summary of the method: as §1

[17] = molecular target: Fuc(a1-2)Gal(b1-4)[Fuc(a1-3)]GlcNAc(b1-3)[Neu5Ac(a2-6)Gal(b1-4)GlcNAc(b1-6)]Gal(b1-4)Glc
Summary of the method: as §1

[18] = molecular target: Fuc(a1-2)Gal3S(b1-4)GlcNAc
Summary of the method: as §1

[19] = molecular target: Fuc(a1-2)Gal6S(b1-3)GlcNAc
Summary of the method: as §1

[20] = molecular target: Fuc(a1-2)Gal6S(b1-3)GlcNAc6S
Summary of the method: as §1

[21] = molecular target: Fuc(a1-2)Gal6S(b1-4)Glc
Summary of the method: as §1

[22] = molecular target: Fuc(a1-2)Gal6S(b1-4)Glc6S
Summary of the method: as §1

[23] = molecular target: Fuc(a1-2)Gal6S(b1-4)GlcNAc
Summary of the method: as §1

[24] = molecular target: Fuc(a1-2)GlcNAc
Summary of the method: as §1

[25] = molecular target: Fuc(a1-2)[Gal(a1-3)]Gal
Summary of the method: as §1

[26] = molecular target: Fuc(a1-2)[Gal(a1-3)]Gal(b1-3)GalNAc
Summary of the method: as §1

[27] = molecular target: Fuc(a1-2)[Gal(a1-3)]Gal(b1-3)GalNAc(b1-3)Gal(a1-4)Gal(b1-4)Glc
Summary of the method: as §1

[28] = molecular target: Fuc(a1-2)[Gal(a1-3)]Gal(b1-3)GlcNAc
Summary of the method: as §1

[29] = molecular target: Fuc(a1-2)[Gal(a1-3)]Gal(b1-3)GlcNAc(b1-2)Man(a1-3)[Fuc(a1-2)[Gal(a1-3)]Gal(b1-3)GlcNAc(b1-2)Man(a1-6)]Man(b1-4)GlcNAc(b1-4)GlcNAc
Summary of the method: as §1

[30] = molecular target: Fuc(a1-2)[Gal(a1-3)]Gal(b1-3)GlcNAc(b1-2)Man(a1-3)[Fuc(a1-2)[Gal(a1-3)]Gal(b1-3)GlcNAc(b1-2)Man(a1-6)]Man(b1-4)GlcNAc(b1-4)[Fuc(a1-6)]GlcNAc
Summary of the method: as §1

B1: GNA (Galanthus nivalis), P30617 (protein)
chain: MAKASLLILAAIFLGVITPSCLSDNILYSGETLSTGEFLNYGSFVFIMQEDCNLVLYDVDKPIWATNTGGLSRSCFLSMQTDGNLVVYNPSNKPIWASNTGGQNGNYVCILQKDRNVVIYGTDRWATGTHTGLVGIPASPPSEKYPTAGKIKLVTAK
For B1, the “glycan array binding signal (z-score)” value [1] was 0.026, the “glycan array binding signal (z-score)” value [2] was -0.272 and the “glycan array binding signal (z-score)” value [3] was -0.078. For the same binder, the “glycan array binding signal (z-score)” value [4] was -0.192, the “glycan array binding signal (z-score)” value [5] was -0.164 and the “glycan array binding signal (z-score)” value [6] was -0.174. For the same binder, the “glycan array binding signal (z-score)” value [7] was -0.153, the “glycan array binding signal (z-score)” value [8] was -0.135 and the “glycan array binding signal (z-score)” value [9] was -0.096. For the same binder, the “glycan array binding signal (z-score)” value [10] was -0.158, the “glycan array binding signal (z-score)” value [11] was 0.014 and the “glycan array binding signal (z-score)” value [12] was -0.094. The “glycan array binding signal (z-score)” value [13] was -0.14, the “glycan array binding signal (z-score)” value [14] was -0.272 and the “glycan array binding signal (z-score)” value [15] was -0.211. For the same binder, the “glycan array binding signal (z-score)” value [16] was -0.131, the “glycan array binding signal (z-score)” value [17] was -0.174 and the “glycan array binding signal (z-score)” value [18] was -0.165. For the same binder, the “glycan array binding signal (z-score)” value [19] was -0.179, the “glycan array binding signal (z-score)” value [20] was -0.137 and the “glycan array binding signal (z-score)” value [21] was -0.015. The “glycan array binding signal (z-score)” value [22] was -0.007, the “glycan array binding signal (z-score)” value [23] was 0.454 and the “glycan array binding signal (z-score)” value [24] was -0.201. The “glycan array binding signal (z-score)” value [25] was -0.188, the “glycan array binding signal (z-score)” value [26] was -0.151 and the “glycan array binding signal (z-score)” value [27] was -0.161. The “glycan array binding signal (z-score)” value [28] was -0.175, the “glycan array binding signal (z-score)” value [29] was -0.019 and the “glycan array binding signal (z-score)” value [30] was 0.539.
